Laboratory results reported in the supplement of paper PMC12217912.
The other results are listed elsewhere or left out. The full chains were built here from the parent and the listed change. Inactive controls read about 0.05.

B1: TEV protease; numbered along this chain (parent)
chain: MGESLFKGPRDYNPISSSICHLTNESDGHTTSLYGIGFGPFIITNKHLFRRNNGTLVVQSLHGVFKVKDTTTLQQHLVDGRDMIIIRMPKDFPPFPQKLKFREPQREERICLVTTNFQTKSMSSMVSDTSCTFPSGDGIFWKHWIQTKDGQCGSPLVSTRDGFIVGIHSASNFTNTNNYFTSVPKNFMELLTNQEAQQWVSGWRLNADSVLWGGHKVFMVKPEEPFQPVKEATQL

Variants of: B1
Assay: raw area under fraction-flipped curve 0-4 h after induction (AUC4h, not background-subtracted), DNA-recorder readout of cleavage of the substrate (dimensionless); higher = more cleavage of the substrate by the protease variant
Details: temperature: 34 °C; time window: 0-4 h after rhamnose induction
Experimental: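 In vivo DNA recorder in E. coli TOP10(DE3) ΔrhaA at 34 °C. Each TEVp single-site mutant (parent TEVp 0) is paired with a single-site variant of the 7-mer TEVs (canonical ENLYFQ|S). The substrate sits between flexible linkers in a Bxb1-sfGFP-TEVs-SsrA fusion, so cleavage stabilises Bxb1 and speeds flipping of a recombination array, read by NGS. The value is the raw area under the fraction-flipped curve over 0-4 h after rhamnose induction (AUC4h), with ≥20 reads per time point. It is not background-subtracted; inactive controls average about 0.047.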
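Also: Bxb1 expression induced with 0.2% (w/v) L-rhamnose at OD600 near 0.5, cultures sampled hourly, flipped fraction per protease–substrate barcode pair counted by paired-end Illumina sequencing.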

Variant	area with substrate ENLAFQS	area with substrate ENLCFQS	area with substrate ENLDFQS	area with substrate ENLEFQS	area with substrate ENLFFQS	area with substrate ENLHFQS	area with substrate ENLIFQS	area with substrate ENLKFQS	area with substrate ENLLFQS	area with substrate ENLNFQS	area with substrate ENLPFQS	area with substrate ENLQFQS	area with substrate ENLRFQS	area with substrate ENLSFQS	area with substrate ENLVFQS	area with substrate ENLWFQS	area with substrate ENLGFQS	area with substrate ENLTFQS	area with substrate ENLMFQS
R204M	0.0939	0.0973	0.0535	0.0759	0.107	0.0667	0.0958	0.0701	0.0784	0.0569	0.0508	0.0785	0.107	0.0628	0.0995	0.0759	–	–	–
D69S	0.0599	0.0625	0.0781	0.0627	0.135	0.072	0.0821	0.0744	–	–	0.0679	0.064	0.0753	0.0509	–	0.0674	0.0684	0.0712	–
G213R	0.066	0.0689	0.0712	0.0595	0.061	0.055	0.0534	0.0653	0.0681	0.0659	0.0643	0.0658	–	0.0583	0.0461	0.0499	0.0746	–	0.0615
R204V	0.0567	0.0574	0.061	0.0609	0.0935	0.067	0.0762	0.0742	0.0597	0.0511	0.0523	0.0706	0.0794	0.0728	–	0.0726	0.0569	–	–
K98P	0.0599	0.0804	0.0548	0.0571	0.0752	0.0642	0.0791	0.0714	0.0763	0.0606	–	0.0567	0.0789	0.0624	0.0671	0.0669	0.0738	0.06	0.0635
F218N	0.0549	–	0.0572	–	0.0559	0.0555	0.0485	0.0412	0.0573	0.0666	0.0603	0.0697	0.0383	0.0693	0.0575	–	–	0.0769	0.0682
F187R	0.0539	0.0463	0.0696	0.0585	0.0548	0.0484	0.0595	0.049	0.0524	0.0578	0.0737	0.06	0.0544	–	0.0634	–	–	–	–
Q234T	0.0663	–	0.0697	0.0666	0.0866	–	–	0.076	–	0.065	0.0797	0.0796	0.073	0.0645	0.0839	0.0821	0.0484	–	0.032
K90V	0.07	0.0921	0.0549	–	–	0.0431	0.0928	0.075	0.0847	0.0723	0.0703	–	0.0692	0.0598	0.0854	–	–	–	0.0823
Q198A	0.0717	0.0687	0.0605	–	0.0806	0.0596	–	–	0.0935	0.0623	0.0905	–	0.103	0.051	0.0735	–	–	0.086	–
S169I	0.0589	0.0637	0.0659	0.0778	0.0545	0.0724	0.0881	0.0546	0.0544	0.0609	0.0459	0.0508	0.059	0.0532	0.0628	0.0577	–	–	0.0633
D149T	0.0534	0.0634	0.0575	0.0336	0.0835	0.0634	0.0853	0.0194	0.0629	0.0745	0.0615	0.0662	0.0613	0.0769	–	0.0578	0.0917	–	0.077
